{"source": "PubChem BioAssay AID1508623", "about": "(National Center for Advancing Translational Sciences (NCATS), 2021)", "note": "About 450 (0.94%) of roughly 48,000 compounds were called active. Inconclusive results, whose numbers are uncertain, are shown with a selection of clear calls. The call rests on the fitted dose curve; in most records, active means well fitted inhibition curve with a large enough effect; inconclusive means small, poorly fitted or top-dose-only effect; inactive means no such curve, though single readings can be large or run the other way. Where the call is inconclusive, the potency comes from a doubtful curve fit. Potency means the concentration at half of the fitted maximal effect; tags describe the fitted curve by direction and shape."}
{"experiment": "Primary qHTS for Identification of Small Molecule Inhibitors of Huntingtin Promoter Activity; further: nearly all actives have a fitted effect of over 50% in size", "conditions": "HEK293 HTT promoter firefly luciferase reporter (activity 0% = vehicle and -100% = no light), 24 h; activity change, negative = inhibition: at 57.5 µM (top of the series)", "how_it_was_run": "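Luminescence was read after Dual-Glo reagent and a 10 min room-temperature incubation. Values were normalized to vehicle (0% activity) and zero RLU (-100% activity). Reporter HEK293 cells had been exposed to compounds (up to 57.5 uM final) for 24 h.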"}
{"smiles": "CCc1ccc(CNC(=O)COc2cc(=O)n(CC)c3ccccc23)cc1", "activity change, negative = inhibition": "inactive: -39.4% [at 11.5 µM]"}
{"smiles": "COc1cc(C2CC(=O)c3c([nH]c(C(=O)OCC4CCCCC4)c3C)C2)cc(OC)c1OC", "note": "(configuration not stated)", "Potency": "inconclusive: 2 µM [inhibitor, full curve, poor fit]"}
{"smiles": "c1cc(CN2CCCNCCNCCCNCC2)ccc1CN1CCCNCCNCCCNCC1", "Potency": "inconclusive: 43.2 µM [inhibitor, single point]"}
{"smiles": "Cc1ccccc1NS(=O)(=O)c1ccc2[nH]cc(C(=O)NC(C)c3ccccc3)c(=O)c2c1", "note": "(configuration not stated)", "Potency": "inconclusive: 20 µM [inhibitor, partial curve, poor fit]"}
{"smiles": "COc1ccccc1CCNC(=O)C(=O)NCC(c1cccs1)S(=O)(=O)c1ccc(C)cc1", "note": "(configuration not stated)", "Potency": "inconclusive: 31.6 µM [inhibitor, partial curve, poor fit]"}
{"smiles": "CCN(CC)CCCNC(=O)c1ccc2nc(N3CCCCC3)sc2c1", "Potency": "inconclusive: 0.631 µM [inhibitor, partial curve, poor fit]"}
{"smiles": "Cc1cc(Nc2ccccc2C)nc(-n2nc(C)cc2C)n1", "Potency": "inconclusive: 20 µM [inhibitor, partial curve, poor fit]"}
{"smiles": "COc1ccc(CCNC(=O)c2cc(C)nc3c2c(C)nn3-c2ccc(C)cc2)cc1OC", "Potency": "inconclusive: 28.2 µM [inhibitor, single point]"}
{"smiles": "Cc1n[nH]c(C)c1S(=O)(=O)N1CCCC(C(=O)Nc2ccc(Br)cc2)C1", "note": "(configuration not stated)", "Potency": "inconclusive: 28.2 µM [inhibitor, single point]"}
{"smiles": "CC(C)n1cnc2c(NCCc3ccc(O)cc3)nc(-c3csc4ccccc34)nc21", "Potency": "inconclusive: 34.3 µM [inhibitor, single point]"}
{"smiles": "Cc1ccc(N(C)C(=O)Cn2cnc3onc(-c4ccc(F)cc4)c3c2=O)cc1C", "Potency": "inconclusive: 22.4 µM [inhibitor, partial curve]"}
{"smiles": "CCOc1ccccc1Nc1sc(C(=O)c2ccccc2)c(N)c1C(=O)NCCc1ccccc1", "Potency": "inconclusive: 39.8 µM [inhibitor, single point]"}
{"smiles": "O=C(c1cc2ccc3cccnc3c2[nH]1)N1CCN(c2cccc(C(F)(F)F)c2)CC1", "activity change, negative = inhibition": "inactive: 1.41%"}
{"smiles": "COc1ccc2nc(S(=O)Cc3ncc(C)c(OC)c3C)[nH]c2c1", "note": "(configuration not stated)", "Potency": "inactive"}
{"smiles": "CCC(C)(C)NS(=O)(=O)c1cc(-c2cc(C)no2)ccc1C", "Potency": "inconclusive: 25.1 µM [inhibitor, partial curve, poor fit]"}
{"smiles": "CCN1c2ccccc2-c2nc(SCC(=O)Nc3cccc(C(F)(F)F)c3)ncc2S1(=O)=O", "Potency": "inconclusive: 22.4 µM [inhibitor, partial curve, poor fit]"}
{"smiles": "Cc1ccc(C)c(CN2C(=O)c3ccccc3S(=O)c3ccc(C(=O)N4CCC(C)CC4)cc32)c1", "note": "(configuration not stated)", "Potency": "inconclusive: 28.2 µM [inhibitor, single point]"}
{"smiles": "CCOC(=O)c1cccc(NC(=O)c2cc(S(=O)(=O)N3CCCCCC3)cn2C)c1", "Potency": "inconclusive: 39.8 µM [inhibitor, single point]"}
{"smiles": "CCNC(=O)c1cc2c(-c3cc(OCCN4CCCC4)c(Cl)cc3Cl)nc(N)nc2s1", "Potency": "inconclusive: 6.85 µM [inhibitor, full curve]"}
{"smiles": "CC(=O)Nc1ccc(NS(=O)(=O)c2ccc3c(c2)CC(C)N3C(=O)C2CCC2)cc1", "note": "(configuration not stated)", "Potency": "inconclusive: 28.2 µM [inhibitor, partial curve, poor fit]"}
{"smiles": "COc1ccc(NC(=O)CN2CCCN(S(=O)(=O)c3ccc(Br)cc3)CC2)c(OC)c1", "Potency": "inconclusive: 25.1 µM [inhibitor, single point]"}
{"smiles": "COCCNC(=O)c1cccc(Nc2nc3ccccc3n3nnnc23)c1", "activity change, negative = inhibition": "inactive: -16.7%"}
{"smiles": "CSc1ccc(CCNC(=O)c2ccc(CS(=O)(=O)c3ccc(Br)cc3)o2)cc1", "Potency": "inconclusive: 39.8 µM [inhibitor, single point]"}
{"smiles": "O=C1N(Cc2cccc(C(F)(F)F)c2)c2ccccc2S(=O)(=O)N1c1cccc(Cl)c1", "Potency": "inconclusive: 39.8 µM [inhibitor, single point]"}
{"smiles": "COc1ccc(CNC(=O)c2cc3cc(S(=O)(=O)N4CCCCC4)ccc3n2C)c(OC)c1", "Potency": "inconclusive: 35.5 µM [inhibitor, single point]"}
{"smiles": "Cc1c(Cl)cccc1N1C(N)=C(C#N)C(c2cc(CN3CCOCC3)cs2)C2=C1CCCC2=O", "note": "(configuration not stated)", "activity change, negative = inhibition": "inactive: -17.2%"}
{"smiles": "CCCN(CCC)c1nc(-c2ccccc2F)nc2ccccc12", "activity change, negative = inhibition": "inactive: -6.83%"}
{"smiles": "O=C(CSc1nc2c([nH]c3ccccc32)c(=O)n1-c1ccc(F)cc1)NC1CCCCC1", "Potency": "inconclusive: 28.2 µM [inhibitor, partial curve, poor fit]"}
{"smiles": "COc1cc(NC(=O)C2CCCN(S(=O)(=O)c3ccc4c(c3)CCCC(=O)N4)C2)cc(OC)c1", "note": "(configuration not stated)", "activity change, negative = inhibition": "inactive: -19%"}
{"smiles": "COc1ccc(-c2nc(SCC(=O)c3ccc(OC)c(Br)c3)n[nH]2)cc1", "Potency": "inconclusive: 12.6 µM [inhibitor, partial curve, poor fit]"}
{"smiles": "CSc1ncc(Cl)c(C(=O)Nc2ccc(S(=O)(=O)N3CCCC(C)C3)cc2)n1", "note": "(configuration not stated)", "Potency": "inconclusive: 15.8 µM [inhibitor, partial curve, poor fit]"}
{"smiles": "CCOc1cccc(C2c3[nH]c4ccccc4c3CCN2C(=O)CCC2CCCC2)c1", "note": "(configuration not stated)", "Potency": "inconclusive: 25.1 µM [inhibitor, single point]"}
{"smiles": "Cc1cc(NC(=O)NCc2ccc3c(c2)CCN3C(=O)c2ccccc2)ccc1Br", "Potency": "inconclusive: 31.6 µM [inhibitor, partial curve, poor fit]"}
{"smiles": "O=C(NCc1cccnc1)C(=O)NCC(c1cccnc1)N1CCN(c2ccccc2F)CC1", "note": "(configuration not stated)", "Potency": "inconclusive: 35.5 µM [inhibitor, partial curve, poor fit]"}
{"smiles": "O=C(Cn1cc(C(=O)c2ccco2)c2ccccc21)Nc1ccccc1Cl", "Potency": "inconclusive: 20 µM [inhibitor, single point]"}
{"smiles": "Cc1nn(-c2ccc(F)cc2)c(-n2cccc2)c1C(=O)NCCCN1CCN(c2cccc(Cl)c2)CC1", "Potency": "inconclusive: 28.2 µM [inhibitor, partial curve, poor fit]"}
{"smiles": "CCOC(=O)c1sc2ccccc2c1S(=O)(=O)N1CCN(c2cccc(OC)c2)CC1", "activity change, negative = inhibition": "inactive: -11.2%"}
